According to the supplement of paper PMC10338343:
± gives the standard deviation. This is a selection; strong and weak results do not stand in their true shares.

System: MIWI (PIWIL1) piRISC loaded with L1MC piRNA (30 nt)
Experiment: pre-steady-state target cleavage rate (min^-1); MIWI and MILI are mouse PIWI proteins and EfPiwi is from a freshwater sponge; tags in brackets are library labels; higher = faster piRNA-guided slicing of the target
Conditions: guide: L1MC piRNA 5'p-UAACUAAAUACUAUGCAAGCUGUAGGUCCU; auxiliary factor: 500 nM mouse GTSF1
How it was run: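 The pre-steady-state cleavage rate was obtained by Cleave-'n-Seq with a burst-and-steady-state fit. A transcribed, DNA-blocked target RNA library (0.1 nM) was mixed with 1 nM active affinity-purified piRISC carrying one synthetic guide, with or without 500 nM GTSF1 partner protein, in HEPES–potassium acetate buffer at 33 °C for 0–8 or 0–960 min. Uncleaved targets were sequenced and normalised to depth and to weakly complementary targets, with three trials pooled and k3 capped at 0.0001 min^-1.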

Row | Sequence | pre-steady-state target cleavage rate
1 | UCCUGGAUCAGCUUGCUUAGUAUUUACAAA | 0.113 ± 0.028
2 | UCCUGGAUGUCGAACCAUAGAUUUAGUUA | < 0.0001
3 | AGGACCUACAGCUUGCAUAGUAAAUAGAAA | 0.439 ± 0.094
4 | UCCUGCUACAGCUUGCAUUGUAUUUACAAA | 0.149 ± 0.034
5 | UCCUGGUACACCUUGCAUAGUAUUUACAAA | 0.0813 ± 0.023
6 | UCCUCCUUGAGCUUGCAUAGUAUUUUCAAA | 0.11 ± 0.02
7 | UCCUCCUACAGGAUGCAUAGUAUUUACAAA | 0.253 ± 0.041
8 | UCCUGGAACAGCUUGCUAGUAUUUAGUUA | 0.0142 ± 0.0056
9 | UGGACCUACAGCUUGCAUAGUUUUUACAAA | 0.0913 ± 0.017
10 | UCCUGGAUGUCCUUGCAUUGUAUUUUGUUA | 0.00605 ± 0.0049
11 | UCCUGGUACAGCUUGCAAUGUAUUUAGAAA | 0.0194 ± 0.0063
12 | UCCUGGAUGUCGAACGAUAGUGUUUAGUUA | < 0.0001
13 | UCCUGGUACAGCUUGCAUAGUAAAUAGAAA | 0.131 ± 0.043
14 | UCCUGGUACAGCUUGCAUAGUAUUAUCUAA | 0.149 ± 0.032
15 | UCCUGGAUGUCGAAGCAUAGUAUUUAGUUU [g2:g16:cont:t1U] | 0.00549 ± 0.0035
16 | UCCUGGAUGUCGAACGAUAGAUAUUUAGUUA | < 0.0001
17 | AGGACCUACACGUUGCAUAGUAUUUUCAAA | 0.209 ± 0.025
18 | UCCUGGUACAGCAACCAUAGUAUUUAGUAA | 0.0151 ± 0.0073
19 | UCCUGGAUGAGCUUCGAUAGUAUUUAGUUA | 0.00576 ± 0.0029
20 | UGGACCUACAGCUUCGAUAGUAUUUAGUAA | 0.307 ± 0.04
21 | UCGACCUACAGCUUGCUAAGUAUUUUCAAA | 0.00985 ± 0.0046
22 | UCCUCCUACAGCUUGCAUUCUAUUUACAAA | 0.0407 ± 0.014
23 | UCCUGGUACAGCUUGCAUAGAUUUUAGUAA | 0.0252 ± 0.015
24 | UCCUGGAUGAGCUUGCAUAGAAUUUACAAA | 0.00798 ± 0.0045
